Test results taken from the supplement of paper PMC8728848.
The list shows a part of the results.

Assays:
Assay in all cases: glycan array binding signal (z-score within array); higher = stronger binding
Conditions in all cases: glycan notation: IUPAC condensed, linker removed
[1] = target: Neu5Ac(a2-3)Gal(b1-4)GlcNAc(b1-2)Man(a1-3)[GlcNAc(b1-4)][Neu5Ac(a2-3)Gal(b1-4)GlcNAc(b1-2)Man(a1-6)]Man(b1-4)GlcNAc(b1-4)GlcNAc
Method in brief: (§1)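 Glycan array data came from 3228 arrays in the Consortium for Functional Glycomics database, and only arrays with an available protein sequence were kept. Glycan names were put into IUPAC-condensed notation, and columns mapping to the same glycan were averaged. The binding signal is a within-array Z-score, averaged across arrays of one protein sequence run at different concentrations or buffers and across linkers. A negative Z-score can be read as non-binding.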

[2] = target: Neu5Ac(a2-3)Gal(b1-4)GlcNAc(b1-2)Man(a1-3)[Neu5Ac(a2-3)Gal(b1-4)GlcNAc(b1-2)Man(a1-6)]Man(b1-4)GlcNAc(b1-4)GlcNAc
Method in brief: as §1

[3] = target: Neu5Ac(a2-3)Gal(b1-4)GlcNAc(b1-2)Man(a1-3)[Neu5Ac(a2-3)Gal(b1-4)GlcNAc(b1-2)Man(a1-6)]Man(b1-4)GlcNAc(b1-4)[Fuc(a1-6)]GlcNAc
Method in brief: as §1

[4] = target: Neu5Ac(a2-3)Gal(b1-4)GlcNAc(b1-2)Man(a1-3)[Neu5Ac(a2-6)Gal(b1-4)GlcNAc(b1-2)Man(a1-6)]Man(b1-4)GlcNAc(b1-4)GlcNAc
Method in brief: as §1

[5] = target: Neu5Ac(a2-3)Gal(b1-4)GlcNAc(b1-2)[Neu5Ac(a2-3)Gal(b1-4)GlcNAc(b1-4)]Man(a1-3)[GlcNAc(b1-4)][Neu5Ac(a2-3)Gal(b1-4)GlcNAc(b1-2)[Neu5Ac(a2-3)Gal(b1-4)GlcNAc(b1-6)]Man(a1-6)]Man(b1-4)GlcNAc(b1-4)GlcNAc
Method in brief: as §1

[6] = target: Neu5Ac(a2-3)Gal(b1-4)GlcNAc(b1-2)[Neu5Ac(a2-3)Gal(b1-4)GlcNAc(b1-4)]Man(a1-3)[GlcNAc(b1-4)][Neu5Ac(a2-3)Gal(b1-4)GlcNAc(b1-4)Man(a1-6)]Man(b1-4)GlcNAc(b1-4)GlcNAc
Method in brief: as §1

[7] = target: Neu5Ac(a2-3)Gal(b1-4)GlcNAc(b1-2)[Neu5Ac(a2-3)Gal(b1-4)GlcNAc(b1-6)]Man(a1-6)[Neu5Ac(a2-3)Gal(b1-4)GlcNAc(b1-2)Man(a1-3)]Man(b1-4)GlcNAc(b1-4)GlcNAc
Method in brief: as §1

[8] = target: Neu5Ac(a2-3)Gal(b1-4)GlcNAc(b1-2)[Neu5Ac(a2-3)Gal(b1-4)GlcNAc(b1-6)]Man(a1-6)[Neu5Ac(a2-3)Gal(b1-4)GlcNAc(b1-2)Man(a1-3)][GlcNAc(b1-4)]Man(b1-4)GlcNAc(b1-4)GlcNAc
Method in brief: as §1

[9] = target: Neu5Ac(a2-3)Gal(b1-4)GlcNAc(b1-3)Gal
Method in brief: as §1

[10] = target: Neu5Ac(a2-3)Gal(b1-4)GlcNAc(b1-3)Gal(b1-3)GlcNAc
Method in brief: as §1

[11] = target: Neu5Ac(a2-3)Gal(b1-4)GlcNAc(b1-3)Gal(b1-4)GlcNAc
Method in brief: as §1

[12] = target: Neu5Ac(a2-3)Gal(b1-4)GlcNAc(b1-3)Gal(b1-4)GlcNAc(b1-2)Man(a1-3)[Neu5Ac(a2-3)Gal(b1-4)GlcNAc(b1-3)Gal(b1-4)GlcNAc(b1-2)Man(a1-6)]Man(b1-4)GlcNAc(b1-4)GlcNAc
Method in brief: as §1

[13] = target: Neu5Ac(a2-3)Gal(b1-4)GlcNAc(b1-3)Gal(b1-4)GlcNAc(b1-3)Gal(b1-4)GlcNAc
Method in brief: as §1

[14] = target: Neu5Ac(a2-3)Gal(b1-4)GlcNAc(b1-3)Gal(b1-4)GlcNAc(b1-3)Gal(b1-4)GlcNAc(b1-2)Man(a1-3)[Neu5Ac(a2-3)Gal(b1-4)GlcNAc(b1-3)Gal(b1-4)GlcNAc(b1-3)Gal(b1-4)GlcNAc(b1-2)Man(a1-6)]GalNAc
Method in brief: as §1

[15] = target: Neu5Ac(a2-3)Gal(b1-4)GlcNAc(b1-3)Gal(b1-4)GlcNAc(b1-3)GalNAc
Method in brief: as §1

[16] = target: Neu5Ac(a2-3)Gal(b1-4)GlcNAc(b1-3)Gal(b1-4)GlcNAc(b1-3)[Neu5Ac(a2-3)Gal(b1-4)GlcNAc(b1-3)Gal(b1-4)GlcNAc(b1-6)]GalNAc
Method in brief: as §1

[17] = target: Neu5Ac(a2-3)Gal(b1-4)GlcNAc(b1-3)Gal(b1-4)GlcNAc(b1-6)[Gal(b1-3)]GalNAc
Method in brief: as §1

[18] = target: Neu5Ac(a2-3)Gal(b1-4)GlcNAc(b1-3)Gal(b1-4)[Fuc(a1-3)]GlcNAc
Method in brief: as §1

[19] = target: Neu5Ac(a2-3)Gal(b1-4)GlcNAc(b1-3)GalNAc
Method in brief: as §1

[20] = target: Neu5Ac(a2-3)Gal(b1-4)GlcNAc(b1-3)[Neu5Ac(a2-3)Gal(b1-4)GlcNAc(b1-6)]GalNAc
Method in brief: as §1

[21] = target: Neu5Ac(a2-3)Gal(b1-4)GlcNAc(b1-6)GalNAc
Method in brief: as §1

[22] = target: Neu5Ac(a2-3)Gal(b1-4)GlcNAc(b1-6)[Gal(b1-3)]GalNAc
Method in brief: as §1

[23] = target: Neu5Ac(a2-3)Gal(b1-4)GlcNAc(b1-6)[Neu5Ac(a2-3)Gal(b1-3)]GalNAc
Method in brief: as §1

[24] = target: Neu5Ac(a2-3)Gal(b1-4)GlcNAc6S
Method in brief: as §1

[25] = target: Neu5Ac(a2-3)Gal(b1-4)[Fuc(a1-3)]GlcNAc
Method in brief: as §1

[26] = target: Neu5Ac(a2-3)Gal(b1-4)[Fuc(a1-3)]GlcNAc(b1-2)Man
Method in brief: as §1

[27] = target: Neu5Ac(a2-3)Gal(b1-4)[Fuc(a1-3)]GlcNAc(b1-3)Gal
Method in brief: as §1

[28] = target: Neu5Ac(a2-3)Gal(b1-4)[Fuc(a1-3)]GlcNAc(b1-3)Gal(b1-4)GlcNAc
Method in brief: as §1

[29] = target: Neu5Ac(a2-3)Gal(b1-4)[Fuc(a1-3)]GlcNAc(b1-3)Gal(b1-4)[Fuc(a1-3)]GlcNAc(b1-3)Gal(b1-4)[Fuc(a1-3)]GlcNAc
Method in brief: as §1

[30] = target: Neu5Ac(a2-3)Gal(b1-4)[Fuc(a1-3)]GlcNAc(b1-3)GalNAc
Method in brief: as §1

[31] = target: Neu5Ac(a2-3)Gal(b1-4)[Fuc(a1-3)]GlcNAc(b1-6)[Gal(b1-3)]GalNAc
Method in brief: as §1

[32] = target: Neu5Ac(a2-3)Gal(b1-4)[Fuc(a1-3)]GlcNAc(b1-6)[Neu5Ac(a2-3)Gal(b1-3)]GalNAc
Method in brief: as §1

[33] = target: Neu5Ac(a2-3)Gal(b1-4)[Fuc(a1-3)]GlcNAc6S
Method in brief: as §1

[34] = target: Neu5Ac(a2-3)Gal6S(b1-4)GlcNAc
Method in brief: as §1

[35] = target: Neu5Ac(a2-3)Gal6S(b1-4)[Fuc(a1-3)]GlcNAc
Method in brief: as §1

[36] = target: Neu5Ac(a2-3)GalNAc
Method in brief: as §1

[37] = target: Neu5Ac(a2-3)GalNAc(b1-4)GlcNAc
Method in brief: as §1

B1: LTL (Lotus tetragonolobus), P19664 (protein)
chain: VSFNYTEFKDDGSLILQGDAKIWTDGRLAMPTDPLVNNPKTTRSAGRALYATPVPIWDSATGNVASFVTSFNFLFVIRELKYTPTDGLVFFLAPVGTEIPSGSTGGFLGIFDGSNGFNQFVAVEFDSYHNIWDPKSLRSSHVGIDVNSIMSLKAVNWNRVSGSLEKATIIYDSQTNILSVVMTSQNGQITTIYGTIDLKTVLPEKVSVGFSATTGNPEREKHDIYSWSFTSTLKEPEEQA
For B1, the “glycan array binding signal (z-score)” value [1] was -0.322, the “glycan array binding signal (z-score)” value [2] was -0.261 and the “glycan array binding signal (z-score)” value [3] was -0.265. The “glycan array binding signal (z-score)” value [4] was -0.254, the “glycan array binding signal (z-score)” value [5] was -0.427 and the “glycan array binding signal (z-score)” value [6] was -0.255. For the same binder, the “glycan array binding signal (z-score)” value [7] was -0.31, the “glycan array binding signal (z-score)” value [8] was -0.267 and the “glycan array binding signal (z-score)” value [9] was -0.219. For the same binder, the “glycan array binding signal (z-score)” value [10] was 0.176, the “glycan array binding signal (z-score)” value [11] was -0.188 and the “glycan array binding signal (z-score)” value [12] was 2.77. For the same binder, the “glycan array binding signal (z-score)” value [13] was -0.035, the “glycan array binding signal (z-score)” value [14] was 5.64 and the “glycan array binding signal (z-score)” value [15] was -0.214. For the same binder, the “glycan array binding signal (z-score)” value [16] was 0.512, the “glycan array binding signal (z-score)” value [17] was 0.74 and the “glycan array binding signal (z-score)” value [18] was 0.099. The “glycan array binding signal (z-score)” value [19] was -0.196, the “glycan array binding signal (z-score)” value [20] was -0.264 and the “glycan array binding signal (z-score)” value [21] was -0.465. For the same binder, the “glycan array binding signal (z-score)” value [22] was 0.214, the “glycan array binding signal (z-score)” value [23] was -0.237 and the “glycan array binding signal (z-score)” value [24] was -0.145. The “glycan array binding signal (z-score)” value [25] was -0.31, the “glycan array binding signal (z-score)” value [26] was -0.237 and the “glycan array binding signal (z-score)” value [27] was -0.157. The “glycan array binding signal (z-score)” value [28] was -0.086, the “glycan array binding signal (z-score)” value [29] was 0.103 and the “glycan array binding signal (z-score)” value [30] was 0.385. For the same binder, the “glycan array binding signal (z-score)” value [31] was 1.2, the “glycan array binding signal (z-score)” value [32] was 0.815 and the “glycan array binding signal (z-score)” value [33] was -0.154. For the same binder, the “glycan array binding signal (z-score)” value [34] was 1.81, the “glycan array binding signal (z-score)” value [35] was 2.84 and the “glycan array binding signal (z-score)” value [36] was -0.335. The “glycan array binding signal (z-score)” value [37] was -0.428.
